Measured values: the supplement of paper PMC11417369
This is one part of the list.

tested on: PF3D7_0420300 AP2 domain 1 (GST-tagged); assay: gcPBM binding intensity (ln(normalized median fluorescence intensity)); higher = stronger DNA binding
Outline: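 Alexa488 anti-GST antibody, scanned at 488 nm, detected GST-tagged P. falciparum DNA-binding domains that had been expressed in E. coli and incubated for 1 h on an Agilent 4 × 180k array. The array carried primer-extended double-stranded 36-bp intergenic genomic probes and negative controls. Binding intensity is the highest Masliner-normalised natural-log median intensity across replicate spots of either orientation of each probe.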

| Sequence | gcPBM binding intensity (ln) |
| --- | --- |
| CCATTTTAAATATGCACACAGATGCACTAACCCATT [CACACA_site1883] | 9.36 |
| TAAAAAATAAAAAAAGCACACACATATATATATATA [CACACA_site8567] | 9.72 |
| AAAATAAGAAATTGAAAAATTGAAAACAAAATTAAA [CACACA_negctrl_site1285] | 9.15 |
| TATCCCTTAGAATACACACCCATATGAGCGTGAACT [CACACA_site2951] | 9.15 |
| TCGTATATGGATTTTGCACACAATTATAATTTAAAT [CACACA_site868] | 9.49 |
| TATATATTTTAAAATAGTACATATTATATAACCCAT [XGTACX_site2194] | 9.25 |
| ATATATATATATATATGTACACATTAATGTTTTTTT [XGTACX_site167] | 9.41 |
| ATTTTTTTTATGAGGTGTACTCATATAATAACTACA [XGTACX_site5074] | 9.11 |
| TATTTTTTTTTTTAATGTACAAACAAATTATGTTGG [XGTACX_site2873] | 9.03 |
| TTTTCTAAAGTAAGTTAAGATATGCAAAAAAAAGAA [GTGCAC_negctrl_site242] | 9.2 |
| AATAAAAATTGGTAGGCACACATGGAACTATTAAAA [CACACA_site1257] | 9.64 |
| TATAAAAGGTAAGAGTGTACAAGTAAAAAATTTTTA [XGTACX_site771] | 9.3 |
| ATGAACTATATTAAATCACACATTATCATTTTATAT [CACACA_site4989] | 9.31 |
| TATGTCAAATATATATGTACACAAATATACTATTAA [XGTACX_site2643] | 9.07 |
| ATAAAATATATATTAGTGCACTAAAGGAAAAAAAAT | 9.56 |
| AATATATATATTAGAGTGCACATAATTATTTGCTAA | 9.18 |
| AAAAATTTCATATTCACACACAAAAAAAAAAAATAT [CACACA_site1592] | 9.75 |
| TGATATATATATATATATATAACACACGCAAAAAAA [TGCATGCA_negctrl_site240] | 9.34 |
| ATAATCACAAATAATTGTACATTTTGTTATATATAT [XGTACX_site7704] | 9.3 |
| ATATGATATATATTCGGTACACATATATATAAAGAG [XGTACX_site430] | 9.43 |
| TTTTTAATTTATTGTGTGCACACAACTATGAGTTTT | 9.88 |
| AAGTTTTCTTAAAATTGTACTTTTCAAAAATAATCT [XGTACX_site277] | 8.89 |
| ATTTAAATAATATTCACACACAAAATTATATTTTAA [CACACA_site219] | 9.49 |

| Sequence | gcPBM binding intensity (ln) |
| --- | --- |
| TTATTTTTTATTATGTGTACATAACATCGCGATACA [XGTACX_site4359] | 9.28 |
| AAAACTTGTCAGAATGGACACACGAATTAAAGGCCT [CACACA_site1215] | 9.33 |
| CAACATTCGTATATCACACATTTGCATGTTGTCAAT [CACACA_site4470] | 9.25 |
| GATTTAGTTATTTAAACATGCAATTTATATAGAATT [TGCATGCA_site47] | 8.98 |
| TATTTATACATACATACACACATATAGATTTATATT [CACACA_site7851] | 9.57 |
| ATATGATCATACTGTGCATGTTAATGCAAATTTTAT [TGCATGCA_site984] | 9.27 |
| TACATATATTATACATGTACACATTTATACATATCG [XGTACX_site2866] | 9.3 |
| CGCACAGACGGACACACACACACATATATATATATA [CACACA_site5249] | 10.1 |
| TTTTTTTTTATATAAAAAAAAATTTTTATTATTTTA [GTGCAC_negctrl_site347] | 8.72 |
| TTCTCCTAATAGTTAGTGCACTACATAACTAAGAAA | 8.82 |
| ATAATTGTCCATTTTTTCTTTTTTTTTTTCTTTTTA [CACACA_negctrl_site928] | 9.58 |
| AAAAAAAAAAAAAAAACACACATTTAGCAATCTACA [CACACA_site3706] | 9.32 |
| ATTATTATATATGTATGTACTTATATAATATATATA [XGTACX_site5198] | 9.11 |
| TATATATTGTTATATACACACATGTATTTAAAAAAT [CACACA_site5737] | 9.32 |
| TCTGTTAAACAAAAAAGTACTAAAATAATGTAAAAT [XGTACX_site6826] | 9.41 |
| TTAACAAAACATAAGGTGCTTAAAATTTTATATCAC [GTGCAC_site9839] | 9.21 |
| TACCTATATAGACACACACACATATATTTATTTATA [CACACA_site6728] | 9.84 |
| ATATGTACAAGTGTTTATGCTGAACGGAAATCCTGT [CACACA_negctrl_site1372] | 9.23 |
| AAAAAAAAAAGAAACACACACATATATATATAGAAT [CACACA_site1777] | 10.1 |
| CATACCTTTTAATGTACACACATTTCTTTTTTGTTA [CACACA_site892] | 9.73 |
| AATATATATACTATAACACACATACACCCAAAAAAA [CACACA_site4453] | 9.79 |
| TTATATGGATATACAGTGCATATATACATATAAGTG | 9.15 |
